The campaign covered roughly 150,000 compounds. About 540 (0.36%) showed an effect of 50% or more. This is one part of the list.
Tested on: Plasmodium falciparum
Assay: Primary screen in NF54 nanoGlo assay, in single point, at 2uM, 72h; a lower Z score goes with more inhibition
Format: functional, Erythrocyte
Details: timepoint 72 hour

Row | SMILES | % Inhibition | Z score
1 | CC(C)N1CCCC[C@H]1C(=O)NCCc1nccn1C | -6% | 0.67
2 | CC(C)N(CC(=O)N1CCc2sccc2[C@@H]1COc1ccccc1)C(=O)c1cccs1 | -1% | 0.15
3 | Cc1ncsc1CCCNC(=O)Cc1c[nH]c(=O)n(C)c1=O | -5% | 0.92
4 | Cc1c(C(=O)NCCc2cccc(Cl)c2)nnn1C1CCNCC1 | -13% | 2.03
5 | Cc1nc(CNC(=O)N2CCN(CC(F)(F)F)[C@@H](C)C2)oc1C | -11% | 1.26
6 | CCOc1ccccc1CCNC(=O)c1ccn2nnnc2c1 | -3% | 0.6
7 | CCn1cnc2c(N3CCCOC3)ncnc21 | -5% | 0.67
8 | CC(C)(C)NC(=O)Nc1cccc(Cl)c1Cl | -6% | 1.13
9 | Cc1ccc2c(c1C)-n1cccc1C1(CCN(S(=O)(=O)c3ccc(F)c(Cl)c3)CC1)N2 | -7% | 0.88
10 | COc1ncc(CN2CC[C@H](O)CC(C)(C)C2)cn1 | -5% | 0.96
11 | Cc1ccc(-c2ocnc2C(=O)Nc2cc(F)ccc2F)o1 | 1% | -0.24
12 | O=C([C@@H]1CCCO1)N1CCN(c2ccc3cc[nH]c3n2)CC1 | -10% | 1.43
13 | CCn1nc(C)c(CN2CCCC3(C2)OCCO3)c1C | -6% | 0.8
14 | Cc1ccc(-c2nn(C)c(=O)c3c2CCCC3)cc1S(=O)(=O)NC1CCCCC1 | -4% | 0.56
15 | COC(=O)CN1CCCC(C(C)O)C1 (stereo not given) | -13% | 1.89
16 | Cc1noc([C@@]23CN(C(=O)c4ccccc4)C[C@@H]2CN(C(=O)c2cncnc2)C3)n1 | -12% | 1.56
17 | CCC(CC)C(=O)N(Cc1ccc(OC)c(OC(C)C)c1)C1CCCC1 | -8% | 1.01
18 | CCc1cnc(N[C@@H](CC)c2ncccc2C)nc1 | -16% | 2.55
19 | COc1ccc(C(=O)OCC(=O)Nc2cc(C3CC3)nn2-c2ccccc2)c(O)c1 | -7% | 1.34
20 | CC[C@H](C)N(Cc1c(C)nn(-c2cccc(F)c2)c1N1CCN(CC)CC1)C(=O)CC(C)C | -4% | 0.53
21 | CCCCC(=O)N1CCc2[nH]nc(C(=O)N3CCN(c4ccc(F)cc4)CC3)c2C1 | -20% | 1.94
22 | CCOc1ccc(CNS(=O)(=O)c2ccc(-c3ccno3)cc2OC)cc1OC | -19% | 1.7

Row | SMILES | % Inhibition | Z score
23 | NCC#CCOc1cccc(C(F)(F)F)c1 | -10% | 1.11
24 | Cn1nc(C(=O)Nc2ccccc2OCC(F)F)cc1C1CC1 | 3% | -0.54
25 | Cc1nn(CC(=O)N[C@@H](C)c2nncn2C)c(=O)n1-c1ccc2c(c1)OCO2 | -9% | 1.1
26 | O=C(NCCc1cccnc1)[C@H]1CCc2nc(N3CCCC3)ncc2C1 | -5% | 0.89
27 | CC1CCC(c2ccccc2)N(c2ccc(C#N)nn2)C1 (stereo not given) | 6% | -0.72
28 | O=C(NC(Cc1ccccc1)c1cccs1)C1CCCO1 (stereo not given) | -18% | 2.33
29 | Cc1cc(NC(=O)CN2CCC(COc3ccccn3)CC2)n(C)n1 | 5% | -0.69
30 | Cc1cccnc1NC(=O)c1ccc(CN2CCNC(=O)[C@@H]2CCO)cc1 | -4% | 0.49
31 | Cn1nccc1C(=O)Nc1nnc(-c2ccco2)o1 | -7% | 1.23
32 | O=C(c1c[nH]c(=O)c(Cl)c1)N1CC[C@@]2(CCCN(CCC3CCCCC3)C2)C1 | 4% | -0.61
33 | COC(=O)c1ccc(-c2nc(CN3CCn4c(C)ccc4[C@@H]3C)c(C)o2)cc1 | -3% | 0.48
34 | Cc1ncsc1CCn1ccc(C#N)cc1=O | -10% | 0.98
35 | CCc1nnsc1C(=O)Nc1nc2ccc(C)cc2s1 | -15% | 2.28
36 | c1ccc(-c2c[nH]c3scc[n+]23)cc1 | -8% | 1.02
37 | Cc1cc(C2CCC2)nc(NC[C@H]2COCCO2)n1 | -10% | 1.59
38 | CC(C)N1C2CCC1CN(C(=O)NCc1ccccc1)CC2 (stereo not given) | 29% | -3.96
39 | COc1cc(C)cc(-c2cc(C(=O)O)cc(S(=O)(=O)N3CCOCC3)c2)c1OC | -2% | 0.31
40 | Cc1ccc([C@H](C)NCCN2C(=O)NC(C)(C)C2=O)o1 | -7% | 0.7
41 | CCOC(=O)c1nsc2c(OCC)ncnc12 | -2% | 0.27
42 | Cc1n[nH]c(C)c1CC(=O)NCCc1nc(C2CCCCC2)cs1 | 4% | -0.53
43 | OCC#Cc1csc(CN(Cc2cccnc2)C2CCCCCC2)c1 | -12% | 1.65
44 | CC[C@H](NS(C)(=O)=O)c1ccc(Cl)cc1 | 6% | -1.11

Row | SMILES | % Inhibition | Z score
45 | COCc1noc(CN2CC[C@H](c3nccc(C(F)(F)F)n3)C2)n1 | -2% | 0.33
46 | O=S1(=O)CC(O)C(Nc2ccc3c(c2)OCCO3)C1 (stereo not given) | -8% | 1.02
47 | CCc1c([C@H](C)NCc2ncnn2C)oc2ccccc12 | -3% | 0.56
48 | Cc1cc(C)nc(/N=C(/NC(=O)Nc2ccc(Cl)c(Cl)c2)N2CCC(Cc3ccccc3)CC2)n1 | 5% | -0.48
49 | COc1ccc(-c2c(C(=O)N3CCOCC3)nn3c(C)cc(C)nc23)cc1S(=O)(=O)N1CCCCC1 | -16% | 2.66
50 | CC(C)CC(=O)N[C@@H]1CCC[C@@H](C(=O)N2CCN(C)CC2)CC(=O)N(C)C1 | 1% | -0.18
51 | CO[C@H]1C[C@H]2CN(C(=O)c3cncn3C)[C@@H](Cc3ccccc3)C(=O)N2C1 | -11% | 1.75
52 | CC(NC(=O)C(OC(C)(C)C)c1ccccc1)c1cnn(C)c1 (stereo not given) | -8% | 0.91
53 | O=C(NCC1CCN(c2cnsn2)CC1)[C@H]1CC12CC2 | -1% | 0.17
54 | O=S(=O)(CCn1ccnc1-c1ccc(-c2cc[nH]n2)s1)N1CCCC1 | 0% | 0.03
55 | CN(C)c1cc([C@H]2C[C@@H](O)C2)nc(N)n1 | -10% | 0.97
56 | CCc1nnc(CN2CCCCCC2CC(O)c2cccs2)o1 (stereo not given) | -6% | 0.59
57 | COc1cccc(C2C(NC(=O)c3cscn3)CCN2C2CC2)c1 (stereo not given) | -15% | 1.71
58 | CC(C)(C)[C@@H](C#N)NC(=O)c1ccc(-n2ccnn2)cc1 | -10% | 1.41
59 | COc1ccc(Cc2nn(-c3ccccc3)c(N)c2-c2ccc(OC)c(OC)c2)cc1OC | 5% | -1.04
60 | COc1ccc(-c2cn([C@H]3CCN(C)C[C@H]3Cc3ccccc3)nn2)cn1 | 11% | -1.45
61 | COc1ccc(Cl)cc1C(C)NCC1CC(C)=NO1 (stereo not given) | -3% | 0.56
62 | O=C(Nc1ccc(Br)cc1)c1nc(-c2cn(-c3ccccc3)nn2)no1 | -12% | 2.43
63 | O=c1c2ccccc2c(-c2nc(-c3ccc4c(c3)OCO4)no2)nn1-c1ccccc1 | 4% | -0.45
64 | C[C@H](NS(=O)(=O)c1ccccc1C(F)(F)F)C(=O)NCc1ccccc1CN1CCOCC1 | 1% | -0.06
65 | NC(=O)c1ccc(NCc2csc(-c3ccccn3)n2)cc1F | -13% | 2.52
66 | CN(CCNC(=O)C1CC=CC1)C(=O)C1CC=CC1 | -5% | 0.93

Row | SMILES | % Inhibition | Z score
67 | Cc1cccc(C)c1NCC(=O)N1CCCN(C(=O)C(C)(C)C)CC1 | 3% | -0.3
68 | NC(=O)Nc1cccc(NC(=O)CC2=CCCCC2)c1 | -9% | 1.87
69 | CCc1cc(N2CCC(C(=O)O)(n3cnc4ccccc43)CC2)ncn1 | -6% | 1.08
70 | O=C([C@H]1CCc2cn[nH]c2C1)N1CCn2c(cc3ccc(Cl)cc32)C1 | -12% | 2.03
71 | CCn1cc(CNC(=O)CCn2nc(C(F)(F)F)c(Cl)c2C)c(C)n1 | -11% | 1.46
72 | O=C(CC1CC2CCC1C2)Nc1cccc(S(=O)(=O)N2CCCC2)c1 (stereo not given) | -5% | 0.61
73 | COc1ccccc1CNC(=O)C1=Nc2ccccc2S(=O)(=O)N1 | -6% | 0.67
74 | Cc1ccc(CN2CC(=O)N3C(c4ccc(C)cc4)c4[nH]c5ccccc5c4C[C@H]3C2=O)cc1 (stereo not given in full) | -3% | 0.37
75 | NC(=O)c1cc(S(N)(=O)=O)cs1 | -6% | 0.71
76 | COc1cccc(C2C(NC(=O)c3cc[nH]n3)CCN2C2CC2)c1 (stereo not given) | -11% | 2.06
77 | NC1CC2CC(C(=O)Nc3cnc4c(F)cccc4c3)CC12 (stereo not given) | -6% | 1.15
78 | Cc1cc(F)ccc1CS(=O)(=O)N[C@@H](C)c1ccc(Cl)cn1 | -8% | 0.98
79 | O=C(Nc1ccc(-c2ccn[nH]2)cc1)[C@H]1CCCN(Cc2cc(F)ccc2F)C1 | -1% | 0.08
80 | CCN1CCN(C[C@@H]2CN(c3cc(C(C)C)nc(C)n3)C[C@@H]2CO)CC1 | 9% | -1.63
81 | CC(C)c1cc(-c2nc([C@H]3CCOC3)n[nH]2)nc(N)n1 | -9% | 0.97
82 | CCc1ccc(C(=O)NC(C2CC2)C2CC2)o1 | -7% | 0.92
83 | O=C(c1ccc(Cl)cn1)N1CCC[C@H](c2nnn[nH]2)C1 | -9% | 0.89
84 | CCOc1ccc(CNC(=O)[C@H]2CCOC2)cc1Cl | -6% | 0.56
85 | COc1ccccc1N1CCN(C(=O)C2CC(=O)N(C3CCS(=O)(=O)C3)C2)CC1 (stereo not given) | 8% | -1.14

From ChEMBL document CHEMBL4888484, “Replenishing the malaria drug discovery pipeline: Screening and hit evaluation of the MMV Hit Generation Library 1 (HGL1) against asexual blood stage Plasmodium falciparum ,using a nano luciferase reporter read-out” (2022)
